# Data taken from PubChem BioAssay AID624255 (Broad Institute, 2012).
# The campaign covered roughly 77,000 compounds. About 4,600 (6%) were called active. Inconclusive results, whose numbers are uncertain, are shown with a selection of clear calls.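 Rule for the calls: active = mean inhibition above about 93%, with at least 55% of replicates each passing it (limit read from the data, passing the limit was not always enough); inconclusive = only one of those two conditions holds; inactive = neither condition holds.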
# Test: T. cruzi intracellular proliferation inhibitors, primary screen, cell-based, beta-gal Tulahuen parasites, NIH3T3 host, luminescence (AID 624255)
# Conditions: T. cruzi beta-gal in NIH3T3, GalScreen luminescence, 90 h; at 8.34 µM; hits give high values
row,Compound,inhibition
1,C[C@H]1CCCCO[C@H](CN(C)Cc2ccc(C(F)(F)F)cc2)[C@@H](C)CN([C@@H](C)CO)C(=O)c2cc(NC(=O)C3CCCCC3)ccc2O1,inconclusive: 126%
2,COc1cccc(C#Cc2cnc3c(c2)C(=O)N([C@@H](C)CO)C[C@@H](C)[C@H](CN(C)C(=O)C2CCCCC2)O3)c1,active: 85.4%
3,OC[C@@H]1[C@H](c2ccc(-c3ccccc3F)cc2)[C@@H]2CN(Cc3ccncc3)CCCCN12,inconclusive: 95.1%
4,N#C[C@H]1[C@@H](c2ccc(C3=CCCCC3)cc2)[C@@H](CO)N1S(=O)(=O)c1cccc(F)c1,active: 105%
5,CCC(=O)N(C)C[C@@H]1Oc2cc(C#CC3CCCCC3)ccc2S(=O)(=O)N([C@@H](C)CO)C[C@@H]1C,inconclusive: 111%
6,COc1ccc(C#Cc2ccc3c(c2)O[C@H](CN(C)C)[C@@H](C)CN([C@@H](C)CO)S3(=O)=O)cc1,inconclusive: 99.7%
7,Cc1ccc(S(=O)(=O)N(C)C[C@@H]2OCCCC[C@H](C)Oc3ccc(N(C)C)cc3C(=O)N([C@@H](C)CO)C[C@H]2C)cc1,inconclusive: 96.1%
8,C[C@H]1CN([C@@H](C)CO)C(=O)CCCn2cc(nn2)CO[C@H]1CN(C)C(=O)Nc1ccccc1C(F)(F)F,inactive: -14.8%
9,C[C@H](CO)N1C[C@H](C)[C@H](CN(C)C(=O)Nc2cccc3ccccc23)OCCCC[C@H](C)Oc2ccc(NC(=O)Nc3ccc(F)cc3)cc2C1=O,inconclusive: 89.3%
10,Cc1ccc(S(=O)(=O)N2CC[C@H]3[C@H](CO)Nc4ccc(-c5ccccc5F)cc4[C@H]32)cc1,inconclusive: 98.3%
11,CC(C)(C)S(=O)N1Cc2cc(C(=O)NCCCN3CCOCC3)nc(-c3cccc(C#CCC4CCCC4)c3)c2[C@@H]1CCO (stereo partly drawn),inconclusive: 97.8%
12,C[C@H](CO)N1C[C@H](C)[C@@H](CN(C)C)Oc2cc(-c3cccc(C#N)c3)ccc2S1(=O)=O,inactive: 52.6%
13,CNC[C@H]1OCCCC[C@@H](C)Oc2ccc(NC(=O)Cc3ccccc3)cc2C(=O)N([C@@H](C)CO)C[C@H]1C,inconclusive: 98.1%
14,Cc1noc(C)c1S(=O)(=O)Nc1ccc2c(c1)C(=O)N([C@H](C)CO)C[C@@H](C)[C@@H](CN(C)CC1CCCCC1)OCCCC[C@@H](C)O2,inactive: 19.3%
15,C[C@@H]1CN([C@@H](C)CO)C(=O)c2cc(NC(=O)NC3CCCCC3)ccc2O[C@@H](C)CCCCO[C@H]1CN(C)S(=O)(=O)c1ccc(F)cc1,inconclusive: 99%
16,COc1ccccc1C#Cc1ccc([C@H]2[C@H](CO)N3CCCCN(S(C)(=O)=O)C[C@@H]23)cc1,inconclusive: 97.4%
17,CN(C)c1ccc2c(c1)[C@H]1C[C@H](CC(=O)NCc3ccc(-c4ccccc4)cc3)O[C@@H](CO)[C@H]1O2,active: 114%
18,COc1cccc(-c2ccc([C@@H]3[C@H](C#N)N(C(=O)Cc4ccccc4)[C@H]3CO)cc2)c1,inconclusive: 97.8%
19,CC(C)NC(=O)Nc1ccc2c(c1)C(=O)N([C@H](C)CO)C[C@@H](C)[C@@H](CN(C)S(=O)(=O)c1ccc(Cl)cc1)OCCCC[C@H](C)O2,inactive: 55%
20,COc1ccc(S(=O)(=O)N2CCCCN3[C@H](CO)[C@H](c4ccc(C#CCC(C)C)cc4)[C@@H]3C2)cc1,inconclusive: 97.3%

row,Compound,inhibition
1,CN(C)C(=O)c1ccc(-c2ccc([C@@H]3[C@H](CO)N4CCCCN(S(C)(=O)=O)C[C@@H]34)cc2)cc1,active: 103%
2,C[C@H]1CN([C@@H](C)CO)C(=O)c2cccc(NC(=O)Nc3ccc(C(F)(F)F)cc3)c2O[C@H]1CN(C)Cc1ccc(Cl)c(Cl)c1,inconclusive: 125%
3,C[C@@H]1CN([C@H](C)CO)C(=O)c2cc(NC(=O)Nc3ccccc3)ccc2O[C@@H](C)CCCCO[C@@H]1CN(C)Cc1ccc2c(c1)OCO2,inconclusive: 98.4%
4,OC[C@@H]1[C@H](c2ccc(/C=C/c3ccccc3)cc2)[C@@H]2CN(Cc3cccnc3)CCCCN12,active: 105%
5,COc1cccc(NC(=O)N(C)C[C@H]2Oc3ncc(C#Cc4ccc(F)cc4)cc3C(=O)N([C@@H](C)CO)C[C@@H]2C)c1,active: 121%
6,COc1ccc(C#Cc2ccc3c(c2)O[C@H](CN(C)C(=O)NC2CCCCC2)[C@@H](C)CN([C@H](C)CO)S3(=O)=O)cc1,inconclusive: 110%
7,CC(C)NC(=O)N1[C@H](C#N)[C@H](c2ccc(-c3ccc(F)cc3)cc2)[C@@H]1CO,inconclusive: 95.1%
8,CNC[C@@H]1Oc2ncc(C#CCC3CCCC3)cc2C(=O)N([C@H](C)CO)C[C@H]1C,inconclusive: 105%
9,C[C@@H]1CN([C@H](C)CO)S(=O)(=O)c2ccc(C#CCN(C)C)cc2O[C@H]1CN(C)Cc1ccccc1F,active: 110%
10,COc1ccc(NC(=O)Nc2ccc3c(c2)C(=O)N([C@H](C)CO)C[C@H](C)[C@H](CN(C)S(=O)(=O)c2ccc(F)cc2)OCCCC[C@H](C)O3)cc1,inconclusive: 119%
11,C[C@H](CO)N1C[C@H](C)[C@H](CN(C)S(=O)(=O)c2ccc(Cl)cc2)OCCCC[C@H](C)Oc2ccc(NS(=O)(=O)c3ccccc3)cc2C1=O,inconclusive: 114%
12,C[C@H](CO)N1C[C@H](C)[C@H](CN(C)C(=O)Nc2ccc(F)cc2)Oc2c(NC(=O)Nc3cccc4ccccc34)cccc2C1=O,inconclusive: 97.6%
13,COCC(=O)N(C)C[C@@H]1Oc2cc(C#Cc3ccccc3)ccc2S(=O)(=O)N([C@@H](C)CO)C[C@H]1C,inconclusive: 95.3%
14,C[C@@H]1CCCCO[C@H](CN(C)CC2CC2)[C@H](C)CN([C@@H](C)CO)C(=O)c2cc(NS(=O)(=O)c3ccc(F)cc3)ccc2O1,inactive: 65.9%
15,O=C(c1ccc(F)cc1)N1CCCCN2[C@@H](CO)[C@@H](c3ccc(C#CC4(O)CCCC4)cc3)[C@@H]2C1,inconclusive: 96.5%
16,COc1cccc(-c2ccc([C@@H]3[C@H](CO)N4CCCCN(Cc5cncnc5)C[C@@H]34)cc2)c1,inactive: -17.9%
17,C[C@@H]1CCCCO[C@@H](CN(C)Cc2ccc3c(c2)OCO3)[C@@H](C)CN([C@@H](C)CO)C(=O)c2cc(NC(=O)Nc3cccc4ccccc34)ccc2O1,inconclusive: 100%
18,C[C@@H]1CN([C@H](C)CO)C(=O)c2cccc(NC(=O)Nc3cccc4ccccc34)c2O[C@@H]1CN(C)C(=O)Nc1ccc2c(c1)OCO2,inactive: 79.5%
19,CCCC#Cc1ccc([C@H]2[C@H]3CN(Cc4cncnc4)CCCCN3[C@H]2CO)cc1,inactive: 63.2%
20,CNC[C@H]1Oc2ncc(C#CCC(C)C)cc2C(=O)N([C@H](C)CO)C[C@H]1C,active: 105%

row,Compound,inhibition
1,COc1cccc(C#Cc2cnc3c(c2)C(=O)N([C@@H](C)CO)C[C@H](C)[C@@H](CN(C)C(C)=O)O3)c1,inactive: -12.9%
2,O=C(C[C@@H]1CC[C@H]2[C@@H](COC[C@H](O)CN2S(=O)(=O)c2cccc(Cl)c2)O1)Nc1ccc(-c2ccccc2)cc1,inconclusive: 96.2%
3,O=C(CN1CCOCC1)N1CC[C@@H]2[C@H]1c1cc(-c3ccccc3)ccc1N[C@@H]2CO,inconclusive: 96.6%
4,C[C@@H]1CN([C@H](C)CO)C(=O)c2cccc(NS(=O)(=O)c3ccc(Cl)cc3)c2O[C@@H]1CN(C)Cc1ccc(C(=O)Nc2ccccc2N)cc1,inactive: 93.2%
5,COC(=O)N(C)C[C@H]1OCc2cn(nn2)CCCC(=O)N([C@@H](C)CO)C[C@H]1C,inconclusive: 99.8%
6,C[C@H]1CN([C@@H](C)CO)S(=O)(=O)c2ccc(C#CCN(C)C)cc2O[C@H]1CN(C)Cc1ccccc1,inconclusive: 96.9%
7,C[C@@H]1CN([C@@H](C)CO)C(=O)c2cccc(NC(=O)c3ccncc3)c2O[C@@H]1CN(C)Cc1ccc2c(c1)OCO2,inactive: 67.7%
8,O=C(Nc1ccccc1)N1C[C@@H]2[C@H](c3ccccc31)[C@H](CO)N2Cc1ccccc1Cl,inconclusive: 96.1%
9,COc1ccc(S(=O)(=O)Nc2ccc3c(c2)C(=O)N([C@@H](C)CO)C[C@H](C)[C@H](CN(C)Cc2ccc(-c4ccccc4)cc2)O3)cc1,inconclusive: 90.2%
10,CCC(=O)NC[C@@H]1[C@H](c2ccc(-c3cccc(F)c3)cc2)[C@H](CO)N1C(=O)CC,inconclusive: 95.1%
11,COc1ccc(NC(=O)N2CCCCN3[C@H](CO)[C@@H](c4ccc(C#Cc5ccccn5)cc4)[C@@H]3C2)cc1,inconclusive: 99.8%
12,C[C@H]1CN([C@@H](C)CO)C(=O)CCCn2cc(nn2)CO[C@H]1CN(C)C(=O)c1ccccc1,inconclusive: 104%
13,COc1cccc(S(=O)(=O)N2CCCCN3[C@H](CO)[C@@H](c4ccc(C#CC(C)C)cc4)[C@@H]3C2)c1,inconclusive: 99.3%
14,CN1c2ccc(-c3ccccc3F)cc2[C@@H]2[C@@H](CCN2S(=O)(=O)c2ccc(F)cc2)[C@@H]1CO,inconclusive: 98.8%
15,N#C[C@H]1[C@@H](c2ccc(-c3ccc(F)cc3)cc2)[C@H](CO)N1C(=O)Cc1ccccc1,inconclusive: 96.1%
16,COc1ccc(NC(=O)Nc2ccc3c(c2)C(=O)N([C@@H](C)CO)C[C@@H](C)[C@H](CN(C)CC2CCCCC2)OCCCC[C@@H](C)O3)cc1,inconclusive: 95.8%
17,O=S(=O)(c1ccccc1F)N1CC[C@@H]2[C@H](CO)Nc3ccc(-c4ccc(F)cc4)cc3[C@@H]21,inconclusive: 97.6%
18,COc1ccc(NC(=O)Nc2ccc3c(c2)C(=O)N([C@H](C)CO)C[C@@H](C)[C@H](CN(C)S(=O)(=O)c2ccccc2)OCCCC[C@@H](C)O3)cc1,inactive: -25.6%
